From a collection of fitness landscapes (doi:10.1016/j.celrep.2020.107928)
Over roughly 81,000 sequences, “one-hybrid fitness for binding parS DNA” has its median near -0.17; the highest 2% begin near 0.51. The list shows a part of the results.

B1: Caulobacter ParB omega fusion; a variant is named by its letters at X, in order, B8GW30 (parent)
chain: MESVVVGEPGMSEGRRGLGRGLSALLGEVDAAPAQAPGEQLGGSREAPIEILQRNPDQPRRTFREEDLEDLSNSIREKGVLQPILVRPSPDTAGEYQIVAGERAWRAAQRAGLKTVPIMVRELDDLAVLEIGIIENVQRADLNVLEEALSYKVLMEKFERTQENIAQTIGKSXSHVANXMRLLXLPDEVQSYLVSGELTAXHARAIAAAADPVALAKQIIEGGLSVRETEALARKAPNLSAGKSKGGRPPRVKDTDTQALESDLSSVLGLDVSIDHRGSTGTLTITYATLEQLDDLCNRLTRGI

Variants of: B1
Test: one-hybrid fitness for binding parS DNA (scaled: cognate 1, non-cognate 0); higher = stronger binding
Details: with parS DNA site
Summary of the method: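 The reporter was HIS3, with the binding site 19 bp from the promoter, in E. coli USO used for bacterial one-hybrid selection of Caulobacter ParB libraries with four specificity codons randomised. Growth was on M9 lacking histidine, with 0.1 mM IPTG and 5 mM 3-AT, for 48 hours at 37°C. Illumina sequencing covered plasmids before and after selection; three replicate libraries were pooled and variants with under 10 reads dropped. A fitness score is the log change in variant-to-wild-type read ratio, rescaled to the cognate and non-cognate references.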

Variant | one-hybrid fitness for binding parS DNA
AVVS | ≤ 0.2
VVVG | ≤ 0.2
TYIC | ≤ 0.2
RTKH | 0.439
NCME | ≤ 0.2
LVQA | ≤ 0.2
IVGW | ≤ 0.2
IMAR | ≤ 0.2
PVEI | ≤ 0.2
GTVT | ≤ 0.2
VHEL | ≤ 0.2
NKYM | 0.219
WLWM | ≤ 0.2
EFRN | ≤ 0.2
NFRK | ≤ 0.2
NFVS | ≤ 0.2
VLYT | ≤ 0.2
GTQV | ≤ 0.2
APIP | ≤ 0.2
VPHM | ≤ 0.2
QTFG | ≤ 0.2
AIPM | ≤ 0.2
NYWL | ≤ 0.2
NWLR | ≤ 0.2
CNGN | ≤ 0.2

Variant | one-hybrid fitness for binding parS DNA
YTHC | ≤ 0.2
ELHC | ≤ 0.2
KYNS | ≤ 0.2
MKPT | ≤ 0.2
MDMS | ≤ 0.2
NYGC | ≤ 0.2
TVSK | ≤ 0.2
GEDG | ≤ 0.2
WRAW | ≤ 0.2
PYME | ≤ 0.2
LVRC | ≤ 0.2
FKHG | ≤ 0.2
TPPC | ≤ 0.2
PCQW | ≤ 0.2
MNWI | ≤ 0.2
KCSG | ≤ 0.2
LTVT | ≤ 0.2
LDNT | ≤ 0.2
MDCV | ≤ 0.2
YLRT | ≤ 0.2
HRGT | ≤ 0.2
NMKV | ≤ 0.2
TDYF | ≤ 0.2
QKTA | ≤ 0.2
PDSA | ≤ 0.2

Variant | one-hybrid fitness for binding parS DNA
QCDE | ≤ 0.2
QSHT | ≤ 0.2
APSF | ≤ 0.2
YKHR | ≤ 0.2
PQQC | ≤ 0.2
CCSL | ≤ 0.2
MRGR | ≤ 0.2
QTHS | ≤ 0.2
LPSM | ≤ 0.2
PGDC | ≤ 0.2
QMNA | ≤ 0.2
NQAS | ≤ 0.2
TFAY | ≤ 0.2
DTSV | ≤ 0.2
MDDM | ≤ 0.2
LDRS | ≤ 0.2
QAAG | ≤ 0.2
VPNT | ≤ 0.2
HWQR | ≤ 0.2
FSCR | ≤ 0.2
FQRR | ≤ 0.2
RPMP | ≤ 0.2
QTHT | ≤ 0.2
RCPK | ≤ 0.2
SHGR | ≤ 0.2

Variant | one-hybrid fitness for binding parS DNA
IEPS | ≤ 0.2
MTSV | ≤ 0.2
ASRF | ≤ 0.2
AQSL | ≤ 0.2
LMEM | ≤ 0.2
ISNL | ≤ 0.2
QCTT | ≤ 0.2
HIIG | ≤ 0.2
PREY | ≤ 0.2
MPKS | ≤ 0.2
RHMH | ≤ 0.2
TALC | ≤ 0.2
RYKM | 0.369
SGEF | ≤ 0.2
IGTT | ≤ 0.2
NNPN | ≤ 0.2
QPLW | ≤ 0.2
CQNK | ≤ 0.2
KFKC | ≤ 0.2
STAY | ≤ 0.2
ERTG | ≤ 0.2
HCDN | ≤ 0.2
PQPG | ≤ 0.2
